We go through nine variants from the supplement of paper PMC12217912.

B1: TEV protease; numbered along this chain (parent)
chain: MGESLFKGPRDYNPISSSICHLTNESDGHTTSLYGIGFGPFIITNKHLFRRNNGTLVVQSLHGVFKVKDTTTLQQHLVDGRDMIIIRMPKDFPPFPQKLKFREPQREERICLVTTNFQTKSMSSMVSDTSCTFPSGDGIFWKHWIQTKDGQCGSPLVSTRDGFIVGIHSASNFTNTNNYFTSVPKNFMELLTNQEAQQWVSGWRLNADSVLWGGHKVFMVKPEEPFQPVKEATQL

This is one part of the list. Sequences were assembled here from the parent chain. Values near 0.05 are background.
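Also: Bxb1 expression induced with 0.2% (w/v) L-rhamnose at OD600 near 0.5, cultures sampled hourly, flipped fraction per protease–substrate barcode pair counted by paired-end Illumina sequencing.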

Variants of B1 are the subject of the test. Nature of the test: raw area under fraction-flipped curve 0-4 h after induction (AUC4h, not background-subtracted), DNA-recorder readout of cleavage of the substrate (dimensionless); higher = more cleavage of the substrate by the protease variant. The following applies: temperature: 34 °C; time window: 0-4 h after rhamnose induction.
For the variant MGESLFKGPRDYNPISSSICHLTNESDGHTTSLYGIGFGPFIITNKHLFRRNNGTLVVQSLHGVFKVKDTTTLQQHLVDGRDMIIIRMPKDFPPFPQKLKFREPQREERICLVTTNFQTKSMSSMVSDTSCTFPSGDGIFWKHWIQTKDGQCGSPLVSTRDGFIVGIHSASNFTNTNNYFTSVPKNFMELLTNQEAQQWQSGWRLNADSVLWGGHKVFMVKPEEPFQPVKEATQL [V200Q], the “area with substrate ENLYFQG” value was 0.0925, the “area with substrate ENLYFQL” value is 0.0674, the “area with substrate ENLYFQR” value amounted to 0.0785 and the “area with substrate ENLYFQS” value is 0.0925.
Consider MGESLFKGPRDYNPISSSICHLTNESDGHTTSLYGIGFGPFIITNKHLFRRNNGTLVVQSLHGVFKVKDTTTLQQHLVDGRDMIIIRMPKDFPPFPQKLKFREPQREERICLVTTNFQTKSMSSMVSDTSCTFPSGDGIFWKHWIQTKDGQCGSPLVSTRDGFIVGIHSASNFTNTNNYFTSVPKNFMELLTNQEAQQWVSGWRVNADSVLWGGHKVFMVKPEEPFQPVKEATQL [L205V], for which the “area with substrate ENLYFQG” value amounted to 0.0906, the “area with substrate ENLYFQL” value came out at 0.0622, the “area with substrate ENLYFQM” value stood at 0.0786 and the “area with substrate ENLYFQN” value was determined as 0.0614. In addition, the “area with substrate ENLYFQP” value was 0.0565, the “area with substrate ENLYFQS” value was 0.0861, the “area with substrate ENLYFQT” value amounted to 0.0598 and the “area with substrate ENLYFQV” value was 0.0526. Also, the “area with substrate ENLYFQY” value came to 0.102.
For MGESLFKGPRDYNPISSSICHLTNESDGHTTSLYGIGFGPFIITNKHLFRRNNGTLVVQSLHGHFKVKDTTTLQQHLVDGRDMIIIRMPKDFPPFPQKLKFREPQREERICLVTTNFQTKSMSSMVSDTSCTFPSGDGIFWKHWIQTKDGQCGSPLVSTRDGFIVGIHSASNFTNTNNYFTSVPKNFMELLTNQEAQQWVSGWRLNADSVLWGGHKVFMVKPEEPFQPVKEATQL [V64H], the “area with substrate ENLYFQG” value was 0.0738, the “area with substrate ENLYFQH” value amounted to 0.0971, the “area with substrate ENLYFQI” value was 0.0616 and the “area with substrate ENLYFQS” value is 0.102. For the same variant, the “area with substrate ENLYFQV” value was 0.0399.
As for MGESLFKGPRDYNPISSSICHLTNESDGHTTSLYGIGFGPFIITNKHLFRRNNGTLVVQSLHGVFKVKDTTTLQQHLVDGRDMIIIRMPKDFPPFPQKLKFREPQREERICLVTTNFQTTSMSSMVSDTSCTFPSGDGIFWKHWIQTKDGQCGSPLVSTRDGFIVGIHSASNFTNTNNYFTSVPKNFMELLTNQEAQQWVSGWRLNADSVLWGGHKVFMVKPEEPFQPVKEATQL [K120T], the “area with substrate ENLYFQF” value was 0.0861, the “area with substrate ENLYFQH” value came out at 0.111, the “area with substrate ENLYFQS” value amounted to 0.0954 and the “area with substrate ENLYFQT” value came out at 0.0671.
As for MGESLFKGPRDYNPISSSICHLTNESDGHTTSLYGIGFGPFIITNKHLFRRNNGTLVVQSLHGVFKVKDTTTLQQHLVDGRDMIIIRMPKDFPPFPQKLKFREPQREERICLVTTNFQTCSMSSMVSDTSCTFPSGDGIFWKHWIQTKDGQCGSPLVSTRDGFIVGIHSASNFTNTNNYFTSVPKNFMELLTNQEAQQWVSGWRLNADSVLWGGHKVFMVKPEEPFQPVKEATQL [K120C], the “area with substrate ENLYFQG” value is 0.0931, the “area with substrate ENLYFQI” value was found to be 0.0553, the “area with substrate ENLYFQK” value was 0.0652 and the “area with substrate ENLYFQL” value came out at 0.0613. The “area with substrate ENLYFQM” value was 0.0786, the “area with substrate ENLYFQN” value stood at 0.0698, the “area with substrate ENLYFQR” value came out at 0.0567 and the “area with substrate ENLYFQS” value was 0.0951. In addition, the “area with substrate ENLYFQT” value turned out to be 0.0617, the “area with substrate ENLYFQV” value is 0.077 and the “area with substrate ENLYFQW” value amounted to 0.0715.
For MGESLFKGPRDYNPISSSICHLTNESDGHTTSLYGIGFGPFIITNKHLFRRNNGTLVVQSLHGVFKVKDTTTLQQHLVDGRDMIIIRMPKDFPPFPQKLKFREPQREERICLVTTNFQTKSMSSMVSDTSCTFPSGDGIFWKHWIQTKDGQCGSPLVSTRDGFIVGIHSASNFTNTNNYFTSVPKNFMELLLNQEAQQWVSGWRLNADSVLWGGHKVFMVKPEEPFQPVKEATQL [T192L], the “area with substrate ENLYFQG” value was 0.133, the “area with substrate ENLYFQH” value is 0.0873, the “area with substrate ENLYFQK” value was 0.0559 and the “area with substrate ENLYFQM” value was determined as 0.0651. In addition, the “area with substrate ENLYFQP” value was determined as 0.0568, the “area with substrate ENLYFQQ” value is 0.104, the “area with substrate ENLYFQR” value was found to be 0.0729 and the “area with substrate ENLYFQS” value was 0.101. The “area with substrate ENLYFQT” value amounted to 0.0802, the “area with substrate ENLYFQV” value was found to be 0.0357 and the “area with substrate ENLYFQW” value worked out at 0.0704.
On to MGESLFKGPRDYNPISSSICHLTNESDGHTTSLYGIGFGPFIITNKHLFRRNNGTLVVQSLHGVFKVKDTTTLQQHLVDGRDMIIIRMPKDFPPFPQKLKFREPQREERICLVTTNFQTKSMSSMVSDTSCTFPSGDGIFWKHWIQTKDGQCGSPLVSTRDGFIVGIHSASNFTNTNNYFTSVPKNFMELLTNQEAQQWVSGWRLNADIVLWGGHKVFMVKPEEPFQPVKEATQL [S209I], for which the “area with substrate ENLYFQI” value was found to be 0.047, the “area with substrate ENLYFQL” value stood at 0.059, the “area with substrate ENLYFQP” value was 0.0583 and the “area with substrate ENLYFQS” value was 0.102.
Take MGESLFKGPRDYNPISSSICHLTNESDGHTTSLYGIGFGPFIITNKHLFRRNNGTLVVQSLHGVFKVKDTTTLQQHLVDGRDMIIIRMPKDFPPFTQKLKFREPQREERICLVTTNFQTKSMSSMVSDTSCTFPSGDGIFWKHWIQTKDGQCGSPLVSTRDGFIVGIHSASNFTNTNNYFTSVPKNFMELLTNQEAQQWVSGWRLNADSVLWGGHKVFMVKPEEPFQPVKEATQL [P96T]: the “area with substrate ENLYFQH” value stood at 0.049, the “area with substrate ENLYFQP” value was 0.0626, the “area with substrate ENLYFQR” value is 0.0719 and the “area with substrate ENLYFQS” value turned out to be 0.102. Further, the “area with substrate ENLYFQT” value was 0.103 and the “area with substrate ENLYFQW” value turned out to be 0.0662.
For the variant MGESLFKGPRDYNPISSSICHLTNESDGHTTSLYGIGFGPFIITNKHLFRRNNGTKVVQSLHGVFKVKDTTTLQQHLVDGRDMIIIRMPKDFPPFPQKLKFREPQREERICLVTTNFQTKSMSSMVSDTSCTFPSGDGIFWKHWIQTKDGQCGSPLVSTRDGFIVGIHSASNFTNTNNYFTSVPKNFMELLTNQEAQQWVSGWRLNADSVLWGGHKVFMVKPEEPFQPVKEATQL [L56K], the “area with substrate ENLYFQG” value amounted to 0.059, the “area with substrate ENLYFQH” value turned out to be 0.085, the “area with substrate ENLYFQI” value came to 0.0352 and the “area with substrate ENLYFQK” value worked out at 0.0469. The “area with substrate ENLYFQL” value is 0.0388, the “area with substrate ENLYFQM” value stood at 0.0407, the “area with substrate ENLYFQN” value is 0.0523 and the “area with substrate ENLYFQP” value is 0.0533. Also, the “area with substrate ENLYFQQ” value amounted to 0.0375, the “area with substrate ENLYFQR” value was 0.0504, the “area with substrate ENLYFQS” value amounted to 0.0478 and the “area with substrate ENLYFQT” value was found to be 0.0485. In addition, the “area with substrate ENLYFQW” value came to 0.0475 and the “area with substrate ENLYFQY” value came out at 0.0486.
